Results taken from the supplement of paper PMC10369915.
The other results are listed elsewhere or left out. Cut-off read from the data, not from the text of the source: active = 3.2 or more and inactive = the rest. Most of these values are background signal.

Columns and labels:
Assay in all cases: enrichment score (SH2-bound / input frequency) (ratio); bacterial display of known human phosphotyrosine sites (pTyr-Var adds point mutants) read by sequencing; higher = stronger binding; tyrosines were phosphorylated by kinases first
Conditions in all cases: peptide library: Human pTyr
[1] = molecular target: SHP2 C-SH2 domain E139D
[2] = molecular target: SHP2 C-SH2 domain wild-type
[3] = molecular target: SHP2 N-SH2 domain L43F
[4] = molecular target: SHP2 N-SH2 domain T42A
[5] = molecular target: SHP2 N-SH2 domain T52S
[6] = molecular target: SHP2 N-SH2 domain wild-type

Measured: enrichment score
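Note: displayed peptides selected on beads carrying the immobilized SH2 domain, with library peptides lacking any tyrosine serving as negative controls.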

TSSKEDDYESDAATI [UBR4_HUMAN_370]
inactive: [1] 0.815 | [2] 0.881 | [3] 0.891 | [4] 0.722 | [5] 1.14 | [6] 0.939

ELTAEFLYDEVHPKQ [TWF2_HUMAN_309]
inactive: [1] 0.64 | [2] 0.805 | [3] 0.947 | [4] 0.833 | [5] 0.74 | [6] 1.08

ITETESPYQELQGQR [TYOBP_HUMAN_91]
inactive: [1] 0.71 | [2] 0.627 | [3] 0.756 | [4] 0.869 | [5] 0.802 | [6] 0.872

FGSGDDPYSSAEPHV [TRIM28_HUMAN_458]
inactive: [1] 0.524 | [2] 0.434 | [3] 0.458 | [4] 0.43 | [5] 0.555 | [6] 0.553

FGLSKKIYNGDAARQ [UFO_HUMAN_698_YA]
inactive: [1] 0.903 | [2] 0.866 | [3] 0.504 | [4] 0.447 | [5] 1.29 | [6] 0.579

ASYTDSYYKGQTALH [TRPV1_HUMAN_200]
inactive: [1] 0.656 | [2] 0.564 | [3] 0.639 | [4] 0.522 | [5] 0.637 | [6] 0.569

SPPAEDVYDVPPPAP [BCAR1_HUMAN_362]
inactive: [1] 0.811 | [2] 0.77 | [3] 0.593 | [4] 0.773 | [5] 0.774 | [6] 0.981

KIYSGDYYRQGCASK [TYRO3_HUMAN_686]
inactive: [1] 1.29 | [2] 1.26 | [3] 1.44 | [4] 1.47 | [5] 1.71 | [6] 1.4

EEDSSIDYDLNLPDT [TRPC4_HUMAN_959]
inactive: [1] 0.983 | [2] 0.951 | [3] 0.96 | [4] 0.993 | [5] 1.05 | [6] 0.933

DTVTHEDYVTTRLGG [TRPC4_HUMAN_972]
inactive: [1] 0.752 | [2] 0.446 | [3] 0.489 | [4] 0.516 | [5] 0.614 | [6] 0.79

ASATDSAYKGQTALH [TRPV1_HUMAN_200_YA]
inactive: [1] 0.662 | [2] 0.583 | [3] 0.628 | [4] 0.608 | [5] 0.638 | [6] 0.482

GVVDSGVYAVPPPAE [BCAR1_HUMAN_410]
inactive: [1] 0.673 | [2] 0.533 | [3] 0.482 | [4] 0.498 | [5] 0.646 | [6] 0.528

KVVYENAYGQFIGPH [TRXR1_HUMAN_281]
inactive: [1] 1 | [2] 1.33 | [3] 0.879 | [4] 1.84 | [5] 0.855 | [6] 0.871

ADIDEGLYSRQLYVL [UBA1_HUMAN_55]
inactive: [1] 0.823 | [2] 0.764 | [3] 0.809 | [4] 0.793 | [5] 0.852 | [6] 1.49

AVPEGHEYARVREDG [TYK2_HUMAN_1054_YA]
inactive: [1] 1.13 | [2] 2.37 | [3] 0.805 | [4] 0.734 | [5] 0.65 | [6] 0.525

VIDDESDYFASDSNQ [TRIP4_HUMAN_289]
inactive: [1] 1.19 | [2] 1.01 | [3] 0.985 | [4] 1.06 | [5] 1.01 | [6] 1.15

VPEGHEAYRVREDGD [TYK2_HUMAN_1055_YA]
inactive: [1] 1.13 | [2] 0.954 | [3] 1.03 | [4] 1.17 | [5] 1.16 | [6] 1.08

NSKFDTIYQILLKKK [TRI25_HUMAN_278]
inactive: [1] 2.66 | [2] 1.73 | [3] 1.91 | [4] 2.05 | [5] 1.9 | [6] 2.65
